The supplement of paper PMC11417369
± gives the standard deviation of the averaged measurements. The list shows a part of the results.

The sequences below were run on PfAP2-G AP2 domain (GST-tagged) (assay: gcPBM binding intensity (ln(normalized median fluorescence intensity)); higher = stronger DNA binding).
How it was run: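 GST-fused DNA-binding domains of P. falciparum, expressed in E. coli, were applied at about 25 μg on average for 1 h to an Agilent 4 × 180k array of primer-extended double-stranded 36-bp intergenic genomic probes and negative controls. Binding intensity is the highest Masliner-normalised natural-log median intensity across replicate spots of either probe orientation, measured with Alexa488 anti-GST antibody and a 488 nm scan.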

| Sequence | gcPBM binding intensity (ln) |
| --- | --- |
| TGTTTTTTATTTAATTGTACGAATTAAAAAAAATAA [XGTACX_site3009] | 11 ± 0.82 |
| TACATACATACATACACACATACATATATATATATA [CACACA_site1387] | 10.5 ± 0.35 |
| TCTTTTATTAGTAAAAGTACTTATATAAATATTATA [XGTACX_site5099] | 11.2 ± 0.69 |
| ATAATATAATAAACGTGTACACAATTAAATTATTAT [XGTACX_site3491] | 11.8 ± 0.76 |
| TTTCGTAAACAAATTTGTACGTACAAATTTATAAAT [XGTACX_site8175] | 11.7 ± 1.1 |
| TTTTTACTAATAAGATGTACATATATCCTAAGCATA [XGTACX_site251] | 11.2 ± 0.67 |
| TAGGGATTATACCACACACACATACCCATAAATATA [CACACA_site5719] | 10.3 ± 0.22 |
| ATAGACAGCGCACAAACACACAAACACGCACGCACA [CACACA_site6349] | 10.3 ± 0.26 |
| AATACTCTATTTTATAGTACATATATTATTAATCAC [XGTACX_site6622] | 11.1 ± 0.68 |
| GAAAAAAAAAAAAATACACACAAATTGGTATATAAT [CACACA_site4369] | 9.805 ± 0.092 |
| TATCAAATCCAAAGGGGTACATTTTGTTGTCCTAAT [XGTACX_site5575] | 11.5 ± 0.95 |
| TAGCTCGTTCGGAGCACACACATATAAATAAATATA [CACACA_site7002] | 10.1 ± 0.16 |
| AAAATTTATGTAAAATGTACATACATAAATAAAGAT [XGTACX_site4339] | 11.2 ± 0.64 |
| TTTGTAAAATAATATCTTTCATGTCCTTACTAATTA [GTGCAC_negctrl_site145] | 10.5 ± 0.42 |
| TATTTATTTAAAGGCACACATATTTTTATACTTTCT [CACACA_site3163] | 10.2 ± 0.15 |
| ATTATATATATATATAAACACACATAAATATAAATA [CACACA_site8291] | 10 ± 0.28 |
| TATTAACAAAATTTTTAACACACAAAAAAAAAAAAA [CACACA_site8542] | 9.65 ± 0.31 |
| CATAATATATTTTATGCATGCAAAGCAACCTTTTGA [TGCATGCA_site715] | 9.89 ± 0.057 |
| TTTTTTGTTATATTTGTGCGCAAAAATTGCTGCTTG | 10.4 ± 0.31 |
| ATAAATATATTTCACGCACACACACCCCAAATAAAT [CACACA_site9272] | 10.6 ± 0.34 |
| TAAGGAAAAAATTATAGTACATAATAAATGTATATA [XGTACX_site8328] | 10.9 ± 0.49 |
| TTTTTATATATATTCTCACACACTTTTTATTTTAAC [CACACA_site657] | 9.96 |

| Sequence | gcPBM binding intensity (ln) |
| --- | --- |
| CAAATTTTTTATTAAACACACAAACATATATTTATA [CACACA_site6992] | 9.85 ± 0.11 |
| AAAAAAGAAAAGAAATCATGAAAGAATCAAATAAAG [CACACA_negctrl_site1771] | 9.59 ± 0.11 |
| AATTTTTTTTTTTTTTTTTCTTTTGTAATAAACCAT [XGTACX_negctrl_site334] | 10.1 ± 0.43 |
| AAAAAAAAAAAACACACACACACACCGAAATATATA [CACACA_site4261] | 10 ± 0.13 |
| TTCAGCATAAACACTTGTACATATATACTAAAAATT [XGTACX_site7272] | 11 ± 0.52 |
| TTTATTTTATCTAAAAGTACTTAAATTAGTGTATTT [XGTACX_site5696] | 11.2 ± 0.85 |
| TTACGAAAAAACAAGAGTACATGATGTTATAAAATA [XGTACX_site1412] | 11.3 ± 0.75 |
| ATATATATATATTATACACACGCCGAAAAAATAAAA [CACACA_site1551] | 10.1 ± 0.18 |
| TCATACATTTTCAGCCTGCACTTATATTTAATAATA [GTGCAC_site9863] | 10.2 ± 0.18 |
| TATATATATAAATACACACACACACCGATATATATA [CACACA_site5408] | 10.1 ± 0.2 |
| CGTTGTAGGGAATGTAGTACAGTTATTATTTTATTA [XGTACX_site2429] | 11.6 ± 0.98 |
| ATTTCCCCAACGTGGGTGCATATATTTATGTGTGAA [GTGCAC_site9439] | 10.5 ± 0.49 |
| TAATGTATAATTAATCGTACATTAGATTGTTGTGTT [XGTACX_site52] | 11 ± 0.71 |
| ATATATATATATGTGTGTACTTAAAAATATAATGCA [XGTACX_site7753] | 11.5 ± 0.91 |
| ATTATATTTTTAAGTACACACATATAAATAAATATA [CACACA_site7682] | 11.4 ± 1 |
| TATTAATTATTTTACTGTACTAATAATACTTTTATT [XGTACX_site2179] | 11.4 ± 0.8 |
| ATTATGTGAGGTAACTAAATATGTACGTAACGAAGA [CACACA_negctrl_site1400] | 11.5 ± 0.97 |
| ATTTTAAATTAAATTACACACTACGAATAATATATT [CACACA_site4016] | 9.88 |
| ATATTTCTGTCAAGCACACATAATATTAATATATGT [CACACA_site318] | 10.2 ± 0.2 |
| AAATGTGAACTATAATAATTTCAACGTCTGATATAA [TGCATGCA_negctrl_site440] | 9.895 ± 0.049 |
| AAATTTATAAAGAACACACACATATATATATATATA [CACACA_site48] | 10.1 ± 0.4 |
| CAAAACCTAATATGTACACACATATACATCACACTT [CACACA_site7480] | 11.3 ± 0.86 |

| Sequence | gcPBM binding intensity (ln) |
| --- | --- |
| TTTCTTTCGAATGCTTCACACATTACTCTTAAATAG [CACACA_site5265] | 9.9 ± 0.11 |
| ATATATATATATATAGTGCACATTTATATAATTATT | 10.3 ± 0.42 |
| ATTTTGTTATTATATATATATATATATATATATATA [XGTACX_negctrl_site590] | 9.89 ± 0.49 |
| ACATATAAAATATTCACACACAAGTTATAGTTCTCG [CACACA_site3626] | 9.84 ± 0.042 |
| AATAAATTATATATCACACATATATATTTATATTTA [CACACA_site5964] | 9.79 ± 0.2 |
| ACATTAAAAAATTGTTTGCACTATATAAAATATTAA [GTGCAC_site9728] | 9.99 ± 0.2 |
| AATATAAGAAAAATAACACACACATAAACATATATA [CACACA_site8899] | 9.955 ± 0.078 |
| TTTCTTTTCTTCTCTATTTTTTTTTCACGGCATTAT [TGCATGCA_negctrl_site484] | 9.84 ± 0.2 |
| TCTTTTCAATTTTATATGATCTTAATATTTTATGAA [GTGCAC_negctrl_site294] | 9.82 ± 0.11 |
| TTTTTTTTTTTTTACACACACAAAATATTATAGGTA [CACACA_site7209] | 10 ± 0.38 |
| ATTTTTTACATACTCAAATGTTTTAATTTTTTATAT [CACACA_negctrl_site1213] | 9.875 ± 0.007 |
| ATTCATATGAAACACACACACACACCCATAAAAAAA [CACACA_site3246] | 10.3 ± 0.35 |
| TAATGGAGAAAAAAAAAACACACGGTACATTCAAAG [CACACA_site3117] | 10.6 ± 0.23 |
| AAGGGAAAATAATAAAAGAAAAAGAAAAAAAAAAAA [CACACA_negctrl_site1518] | 9.615 ± 0.021 |
| AAATATTACATTTGTTAAATAATATGTTATACATAA [XGTACX_negctrl_site484] | 9.65 |
| TTTTATAAAGGAAAAGCATGCAGACTAAAAGATCAT [TGCATGCA_site150] | 10.1 ± 0.14 |
| TATATATATATATATTGTACTTTATATGTTCTTATA [XGTACX_site7545] | 11.2 ± 0.73 |
| ACAATATTTTTTTATAAACACACATATATATAAATA [CACACA_site9175] | 9.97 ± 0.15 |
| TATAGTGATATATACACACACTTGTCTTGTAAAAAT [CACACA_site6594] | 10.12 ± 0.078 |
| GAGAGGAACATTATATGTACATATTAATTCTAAAAT [XGTACX_site5433] | 11.1 ± 0.57 |
| ACAAATAAGTTTTATACACACATATAAGTAAATACA [CACACA_site4157] | 9.905 ± 0.007 |
| TAATCCATAAGAAGCACACACATATATATATATTTT [CACACA_site1399] | 9.835 ± 0.049 |

| Sequence | gcPBM binding intensity (ln) |
| --- | --- |
| TATTAATTATTATGACATACATATCAGTTATTAAAA [CACACA_negctrl_site600] | 9.71 ± 0.042 |
| TGTATAAAAATTTATACACACATTTTATATATTTCA [CACACA_site1015] | 9.68 ± 0.13 |
| TATTATAATATGCCTTGTACATATAACAAATTTATT [XGTACX_site108] | 10.8 ± 0.52 |
| TTTTTTTCACAAAATACACACAATATATTTTATATC [CACACA_site1138] | 9.945 ± 0.064 |
| GTATACATGCAAATTTTTATTTACAACCCCAAAAAG [XGTACX_negctrl_site255] | 10.4 ± 0.25 |
| TTTTCATAATATACATGTACATATATAAATTATTAA [XGTACX_site5206] | 11.2 ± 0.67 |
| TTCTTTTTTTTTATCACACATATTACAATCTAGTGC [CACACA_site4697] | 10 ± 0.028 |
| AAAATAATATTTCCTTGTACACATATGTATTTGTTC [XGTACX_site4430] | 11.3 ± 0.69 |
| TTTATTTATTACTAAAGTACTAAATCATATTATTAT [XGTACX_site2574] | 10.6 ± 0.54 |
| ATGAACAAGTGGCACACACACATTATAACTAATTTA [CACACA_site5731] | 10.3 ± 0.26 |
| TTTTGGATTGAGGACCTTTTTATAGAATTATGTTTT [TGCATGCA_negctrl_site544] | 10.4 ± 0.18 |
| ATATATAATTTTTACACACGCAATAAATATATATAT [CACACA_site4283] | 9.95 |
| TTTATTTTCCAAAGGGTGCACATAGTTGAAACGATA | 10.7 ± 0.72 |
| AATAAAGCAATAAATACACACATATTTATATTTATA [CACACA_site7390] | 9.84 ± 0.13 |
| GTTTCCTTAATATTCACACACATATATATAATATAT [CACACA_site1856] | 10.13 ± 0.071 |
| ATGTTATAAGATTTATGTACACACATATACACACCT [XGTACX_site1316] | 11.4 ± 0.79 |
| TTAACATAAATATATACACACCAATGATGGCATTTA [CACACA_site4952] | 9.805 ± 0.007 |
| TATATATAATATATATGTACGTATATATATAATATA [XGTACX_site8383] | 11.4 ± 0.87 |
| AATATACAAAAAAAAAAAAAAAAAAAAAAGATGGAA [TGCATGCA_negctrl_site550] | 9.665 ± 0.064 |
| CGAACACAAACACAAACACACATCATATATATATAT [CACACA_site4857] | 10.1 ± 0.28 |
| ATTTTGGAAATAATATGTACATATACATAATATATA [XGTACX_site4177] | 11.3 ± 0.76 |
| GCAAATCTTATATGAAGTACATATCTTATAAATAAA [XGTACX_site6903] | 11.2 ± 0.79 |
